In the supplement of paper PMC3334620:
In all, about 33,000 sequences were measured (“E-score (-0.5 to 0.5)”: median about -0.054, highest 2% from about 0.35 on). The list shows a part of the results.

Target: T1, Stb5 (UniProt P38699)
T1 sequence: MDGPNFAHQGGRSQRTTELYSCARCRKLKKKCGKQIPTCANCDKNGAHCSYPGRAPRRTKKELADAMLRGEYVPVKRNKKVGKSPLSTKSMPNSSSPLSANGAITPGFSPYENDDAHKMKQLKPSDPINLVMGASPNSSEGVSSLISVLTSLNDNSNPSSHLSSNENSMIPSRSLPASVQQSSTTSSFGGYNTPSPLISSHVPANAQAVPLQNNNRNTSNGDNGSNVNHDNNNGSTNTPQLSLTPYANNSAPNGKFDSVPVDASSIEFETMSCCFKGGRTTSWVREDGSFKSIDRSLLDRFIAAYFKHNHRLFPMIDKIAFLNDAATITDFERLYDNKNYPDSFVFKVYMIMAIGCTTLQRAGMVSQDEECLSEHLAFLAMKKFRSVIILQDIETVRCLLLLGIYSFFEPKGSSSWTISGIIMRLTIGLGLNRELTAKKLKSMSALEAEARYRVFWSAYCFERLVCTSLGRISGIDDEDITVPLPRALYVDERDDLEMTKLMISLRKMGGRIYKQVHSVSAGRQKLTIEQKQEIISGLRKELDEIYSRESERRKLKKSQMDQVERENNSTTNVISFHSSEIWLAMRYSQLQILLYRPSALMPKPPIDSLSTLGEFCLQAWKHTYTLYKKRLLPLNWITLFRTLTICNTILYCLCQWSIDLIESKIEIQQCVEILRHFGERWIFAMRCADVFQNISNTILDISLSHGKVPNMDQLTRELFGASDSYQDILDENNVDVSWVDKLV
Assay: PBM E-score (8-mer binding enrichment) (E-score (-0.5 to 0.5)); higher = stronger / more preferred TF binding; most listed sequences are background and not binding sites
Settings: protein concentration: 200 nM; construct: GST-full length
Outline: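 Detection of bound protein used fluorescent anti-GST, with scans normalised by masliner. The proteins were GST-tagged yeast transcription factors applied at about 100-200 nM to universal all-10-mer Agilent arrays made double-stranded by primer extension. Each ungapped eight-base word, pooled with its reverse complement, was scored with an E-score from the Universal PBM Analysis Suite.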

Row | Sequence | PBM E-score
1 | GGCTAAAA | 0.131
2 | ACTGACAT | -0.24
3 | ATAGATCC | 0.332
4 | AGACGAGA | -0.251
5 | TAATAACA | 0.0646
6 | GCCATGTA | 0.0166
7 | ACGATCCA | -0.199
8 | AGACAAAG | -0.272
9 | CAGTAATC | -0.229
10 | AACTTTAT | -0.021
11 | AGCTAGTA | -0.198
12 | CTTCAAAC | -0.0803
13 | GCGATGAA | 0.0216
14 | AGCTAGCT | -0.44
15 | AGTATTTA | -0.153
16 | ATGGTAGA | -0.175
17 | CTGAAACA | 0.00569
18 | AACACGGT | 0.103
19 | GAGGAGGC | -0.219
20 | CGATGTAG | -0.0702
21 | CTTTCTTC | -0.126
22 | AACAAATT | -0.146

Row | Sequence | PBM E-score
23 | GGAACATA | 0.0234
24 | CTAACGGA | 0.297
25 | AGAAATAC | 0.0397
26 | AGGATACG | -0.0379
27 | CGATGAAC | 0.126
28 | ACAAGTGG | -0.17
29 | AGGCGGTC | 0.258
30 | CCTCGCGA | -0.122
31 | ACATGCAA | -0.165
32 | ATCCGTAC | 0.0997
33 | CTTAAACC | -0.0424
34 | GACAATCA | -0.0791
35 | CGAGTAAG | -0.0321
36 | CCTGTTTA | 0.0509
37 | CACGTGGC | -0.0602
38 | GGACCACC | -0.107
39 | GGCCCACA | -0.107
40 | AGAGCTAG | -0.218
41 | GTAGTCAC | -0.101
42 | CTAGAGGA | -0.142
43 | AAGGGGTG | -0.18
44 | ACTTCGAT | -0.0947

Row | Sequence | PBM E-score
45 | CGCTACTC | 0.0831
46 | AGTGTAGC | -0.15
47 | GCCTGCAA | -0.0794
48 | GATCTGCC | 0.0794
49 | AAAGAATC | 0.00308
50 | ACAGCAAT | -0.0131
51 | GAGCAGCA | -0.183
52 | CCGTTCCC | 0.251
53 | ATACGATC | -0.135
54 | AGCATGGG | -0.0965
55 | GAATGAGA | -0.00577
56 | AATGTGCA | -0.241
57 | AGTGAGCG | -0.114
58 | GTAAATAC | 0.22
59 | AAGCAAGC | -0.113
60 | GGAGTGCA | 0.0406
61 | TTGCGAAA | 0.0793
62 | AAGTTTCC | -0.0966
63 | GAAAAGTA | -0.244
64 | CCTTATGA | -0.0215
65 | CCTTTCAG | -0.0491
66 | GGAGCGCA | -0.165

Row | Sequence | PBM E-score
67 | CAAGTTAC | 0.0162
68 | ATTTTACC | 0.223
69 | CGCTTCCA | -0.0991
70 | GTTTGGAA | -0.197
71 | ATAGGCGG | 0.27
72 | GGACAGAC | -0.0867
73 | CGCGACAC | 0.24
74 | AGTGCGTA | -0.137
75 | ACCACGTA | -0.247
76 | GAAGGATC | -0.163
77 | CGAGGAAG | -0.0975
78 | CAATACCG | 0.332
79 | CGTGAGCA | 0.0927
80 | GACAGTGC | -0.134
81 | ACTTCTCA | -0.308
82 | CGTGTCAA | 0.0525
83 | CAGTCCCG | 0.192
84 | GCGATTAA | 0.143
85 | AGTAGCTG | -0.158
86 | AACTATAT | 0.186
87 | GAGGCGTA | -0.0698
88 | CGTGCTAG | -0.248

Row | Sequence | PBM E-score
89 | ATCATCTG | -0.0678
90 | ACCATTTG | -0.0611
91 | AAGATTTC | -0.115
92 | TCAGACCA | -0.254
93 | AGCTTGAA | -0.237
94 | GAACTAAA | 0.019
95 | CGACGGAC | 0.368
96 | CCATTGGA | -0.238
97 | GATGTGTA | -0.208
98 | ATCAAGCG | 0.0918
99 | CATTTCGC | -0.00541
100 | CTTTGCGC | -0.00385
101 | AAAATGAA | -0.0668
102 | GCGCATTA | 0.00556
103 | AGATCTTA | -0.18
104 | CTTGCGCA | -0.0783
105 | GTTACTCA | -0.0863
106 | CGGGATGC | -0.0328
107 | CGTGATGC | 0.128
108 | CCGACGGC | 0.372
109 | CCTTAACG | 0.136
